Results taken from the supplement of paper PMC12217912.
The list shows a part of the results. Sequences were assembled here from the parent chain. Values near 0.05 are background.

B1: TEV protease; numbered along this chain (parent)
chain: MGESLFKGPRDYNPISSSICHLTNESDGHTTSLYGIGFGPFIITNKHLFRRNNGTLVVQSLHGVFKVKDTTTLQQHLVDGRDMIIIRMPKDFPPFPQKLKFREPQREERICLVTTNFQTKSMSSMVSDTSCTFPSGDGIFWKHWIQTKDGQCGSPLVSTRDGFIVGIHSASNFTNTNNYFTSVPKNFMELLTNQEAQQWVSGWRLNADSVLWGGHKVFMVKPEEPFQPVKEATQL

Variants of: B1
Test: raw area under fraction-flipped curve 0-4 h after induction (AUC4h, not background-subtracted), DNA-recorder readout of cleavage of the substrate (dimensionless); higher = more cleavage of the substrate by the protease variant
Settings: temperature: 34 °C; time window: 0-4 h after rhamnose induction
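Also: Bxb1 expression induced with 0.2% (w/v) L-rhamnose at OD600 near 0.5, cultures sampled hourly, flipped fraction per protease–substrate barcode pair counted by paired-end Illumina sequencing.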

Variant	area with substrate ENLYFCS	area with substrate ENLYFDS	area with substrate ENLYFES	area with substrate ENLYFFS	area with substrate ENLYFIS	area with substrate ENLYFKS	area with substrate ENLYFLS	area with substrate ENLYFMS	area with substrate ENLYFNS	area with substrate ENLYFPS	area with substrate ENLYFRS	area with substrate ENLYFSS	area with substrate ENLYFVS	area with substrate ENLYFWS	area with substrate ENLYFYS	area with substrate ENLYFGS	area with substrate ENLYFHS	area with substrate ENLYFTS
MGESLFKGPRDYNPISSSICHLTNESDGHTTSLYGIGFGPFIITMKHLFRRNNGTLVVQSLHGVFKVKDTTTLQQHLVDGRDMIIIRMPKDFPPFPQKLKFREPQREERICLVTTNFQTKSMSSMVSDTSCTFPSGDGIFWKHWIQTKDGQCGSPLVSTRDGFIVGIHSASNFTNTNNYFTSVPKNFMELLTNQEAQQWVSGWRLNADSVLWGGHKVFMVKPEEPFQPVKEATQL [N45M]	0.0547	0.0646	0.0567	0.0702	0.0587	0.0476	0.0642	0.0718	0.0428	0.0673	0.0495	0.0572	0.0759	0.053	0.07			
MGESLFKGPRDYNPISSSICHLTNESDGHTTSLYGIGFGPFIITFKHLFRRNNGTLVVQSLHGVFKVKDTTTLQQHLVDGRDMIIIRMPKDFPPFPQKLKFREPQREERICLVTTNFQTKSMSSMVSDTSCTFPSGDGIFWKHWIQTKDGQCGSPLVSTRDGFIVGIHSASNFTNTNNYFTSVPKNFMELLTNQEAQQWVSGWRLNADSVLWGGHKVFMVKPEEPFQPVKEATQL [N45F]	0.0517	0.0581	0.0662	0.0721	0.0624		0.0641	0.0601	0.0651	0.0655	0.0625		0.0707	0.0605	0.0508	0.0537	0.0604	0.0566
MGESLFKGPRDYNPISSSICHLTNESDGHTTSLYGIGFGPFIITNKHLFRRNNGTLVVQSLHHVFKVKDTTTLQQHLVDGRDMIIIRMPKDFPPFPQKLKFREPQREERICLVTTNFQTKSMSSMVSDTSCTFPSGDGIFWKHWIQTKDGQCGSPLVSTRDGFIVGIHSASNFTNTNNYFTSVPKNFMELLTNQEAQQWVSGWRLNADSVLWGGHKVFMVKPEEPFQPVKEATQL [G63H]	0.0571	0.0452	0.0574		0.0537					0.0628		0.0534	0.0485			0.0605	0.0515	0.0508
MGESLFKGPRDYNPISSSICHLTNESDGHTTSLYGIGFGYFIITNKHLFRRNNGTLVVQSLHGVFKVKDTTTLQQHLVDGRDMIIIRMPKDFPPFPQKLKFREPQREERICLVTTNFQTKSMSSMVSDTSCTFPSGDGIFWKHWIQTKDGQCGSPLVSTRDGFIVGIHSASNFTNTNNYFTSVPKNFMELLTNQEAQQWVSGWRLNADSVLWGGHKVFMVKPEEPFQPVKEATQL [P40Y]	0.0771		0.0635	0.0866	0.0546	0.0591	0.0595	0.0634	0.0588	0.0643		0.053	0.0949	0.0557	0.056		0.0506	
MGESLFKGPRDYNPISSSICHLTNESDGHTTSLYGIGFGPFIITNKHLFRRNNGFLVVQSLHGVFKVKDTTTLQQHLVDGRDMIIIRMPKDFPPFPQKLKFREPQREERICLVTTNFQTKSMSSMVSDTSCTFPSGDGIFWKHWIQTKDGQCGSPLVSTRDGFIVGIHSASNFTNTNNYFTSVPKNFMELLTNQEAQQWVSGWRLNADSVLWGGHKVFMVKPEEPFQPVKEATQL [T55F]	0.0553			0.0651	0.0563	0.06		0.064	0.04	0.048	0.0539	0.0582	0.06		0.0528	0.0641		
MGESLFKGPRDYNPISSSICHLTNESDGHTTSLYGIGFTPFIITNKHLFRRNNGTLVVQSLHGVFKVKDTTTLQQHLVDGRDMIIIRMPKDFPPFPQKLKFREPQREERICLVTTNFQTKSMSSMVSDTSCTFPSGDGIFWKHWIQTKDGQCGSPLVSTRDGFIVGIHSASNFTNTNNYFTSVPKNFMELLTNQEAQQWVSGWRLNADSVLWGGHKVFMVKPEEPFQPVKEATQL [G39T]	0.044		0.0409	0.0645	0.0396			0.0254			0.0557	0.0444	0.0274	0.0426		0.0465		
MGESLFKGPRDYNPISSSICHLTNESDGHTTSLYGIGFGPFIITNKHLFRRNNGTLVVQSLHGVFKVKDTTTLQQHLVDGRDMFIIRMPKDFPPFPQKLKFREPQREERICLVTTNFQTKSMSSMVSDTSCTFPSGDGIFWKHWIQTKDGQCGSPLVSTRDGFIVGIHSASNFTNTNNYFTSVPKNFMELLTNQEAQQWVSGWRLNADSVLWGGHKVFMVKPEEPFQPVKEATQL [I84F]	0.0478			0.0579	0.059				0.0444	0.0506	0.0498	0.0567	0.0534	0.0565				0.0423
MGESLFKGPRDYNPISSSICHLTNESDGHTTSLYGIGFGPFIITNKHLFRKNNGTLVVQSLHGVFKVKDTTTLQQHLVDGRDMIIIRMPKDFPPFPQKLKFREPQREERICLVTTNFQTKSMSSMVSDTSCTFPSGDGIFWKHWIQTKDGQCGSPLVSTRDGFIVGIHSASNFTNTNNYFTSVPKNFMELLTNQEAQQWVSGWRLNADSVLWGGHKVFMVKPEEPFQPVKEATQL [R51K]	0.0344	0.0482	0.0549	0.0732	0.0551					0.0576			0.0454	0.0683			0.061	0.0542
MGESLFKGPRDYNPISSSICHLTNESDGHTTSLYGIGFGPFIITNKHLFRRNNGTLVVQSLHGVFKVVDTTTLQQHLVDGRDMIIIRMPKDFPPFPQKLKFREPQREERICLVTTNFQTKSMSSMVSDTSCTFPSGDGIFWKHWIQTKDGQCGSPLVSTRDGFIVGIHSASNFTNTNNYFTSVPKNFMELLTNQEAQQWVSGWRLNADSVLWGGHKVFMVKPEEPFQPVKEATQL [K68V]	0.0591			0.0493	0.0342	0.0796	0.053	0.0798		0.0577	0.0715	0.0619		0.0592		0.0538		0.068
